Where “and” joins values, the source holds several entries; their conditions need not be identical. Identical values can stand only once. About 930 (0.24%) of roughly 390,000 compounds were called active. The shares of active, inactive and inconclusive entries below differ from those in the screen. The call rests on the fitted dose curve; in most records, active means well fitted activation curve with a large enough effect; inconclusive means small, poorly fitted or top-dose-only effect; inactive means no such curve, though single readings can be large or run the other way. A potency beside an inconclusive call is a rough fit, not a confirmed value. Square brackets hold non-standard residues; d marks the D form. Peptide text beside a SMILES is read from it.
assay: qHTS for Suppressors of FUS Proteinopathy: Primary screen using FUS-linked yeast assay; further: nearly all actives have a fitted effect of over 55% in size;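 on growth rescue (activation): plate controls were DMSO vehicle for no effect and reference control for full effect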; conditions: S. cerevisiae FUS-expressing, OD600, 24 h; Potency: growth rescue; growth rescue (activation): at 76.6 µM (top of the series)
In short: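 S. cerevisiae expressing FUS from galactose induction served as the toxicity model. Growth after 24hr at 30C, read as absorbance at 600 nm, indicates suppression of toxicity; compounds dosed at several concentrations.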
Potency means the concentration at half of the fitted maximal effect; tags describe the fitted curve by direction and shape.

Structure (SMILES) | Potency | growth rescue (activation)
Cc1ccc(NC2=Nc3ccccc3N3C2=Nc2c(c(C)nn2-c2ccccc2)C3c2ccc(O)c(O)c2)cc1 (centres undefined) | inconclusive: 44.7 µM [activator, single point] | –
O=C(NCc1ccco1)c1cccc(F)c1 | – | inconclusive: 65.8% [activator]
COc1cc2cc3c(N)c(C(=O)Nc4sc(C)c(C)c4C#N)sc3nc2cc1OC | inconclusive: 2.51 µM [activator, full curve, poor fit] | –
O=C(O)CN(c1ccccc1)S(=O)(=O)c1cc(C(F)(F)F)cc(C(F)(F)F)c1 | – | inconclusive: 50.1% [activator]
Cc1ccc(CSc2ccc3nnc(-c4cccnc4)n3n2)cc1 | – | inactive: 25.3%
CC1CCN(S(=O)(=O)c2ccc(NC(=O)Cn3nnc(-c4ccccc4)n3)cc2)CC1 | inconclusive: 22.4 µM [activator, partial curve, poor fit] | –
COc1ccc(CN2C(=O)C(Cc3ccccc3)Nc3ncnc(N4CCCCC4)c32)cc1 (centres undefined) | inconclusive: 22.4 µM [activator, single point] | –
CC[C@H](C)[C@@H]1NC(=O)[C@H]([C@@H](C)CC)NC(=O)[C@@H](CC(C)C)NC(=O)[C@H](Cc2ccccc2)NC(=O)[C@H](Cc2ccccc2)NC(=O)[C@@H]2CCCN2C(=O)[C@@H]2CCCN2C(=O)[C@H](C(C)C)NC(=O)[C@H](CC(C)C)NC1=O (cyclo(FF[dL]IILVPP)) | active: 17.8 µM | –
Cc1cc(=O)[nH]c(N2CCN(C(c3ccccc3)c3ccccc3)CC2)n1 | inconclusive: 11.2 µM [activator, single point] | –
O=C(CSc1nccn1-c1cccc(Cl)c1)Nc1ccc2c(c1)OCO2 | – | inactive: 7.31%
CCN(C(=O)C1CCN(S(=O)(=O)c2cc(Br)cc3c2N(C(C)=O)CC3)CC1)c1cccc(C)c1 | inconclusive: 20 µM [activator, single point] | –
Cc1ccccc1COC[C@H](CC(C)C)N1CCN(C(=O)c2cccc(C(F)(F)F)c2)CCC1=O | inconclusive: 25.1 µM [activator, partial curve, poor fit] | –
CCOC(=O)/C(=C/c1c2ccccc2cc2ccccc12)NC(=O)c1ccccc1 | inconclusive: 50.1 µM [activator, single point] | –
CCOc1cc(-c2ccc(OC(=O)c3ccccc3Cl)c(OC)c2)cc(=O)c2c(C)oc(C)c12 | inconclusive: 50.1 µM [activator, single point] | –
CN(C)c1ccc(N2C(=NC(=O)C3CCCO3)SC3CS(=O)(=O)CC32)cc1 (centres undefined) | inconclusive: 39.8 µM [activator, partial curve, poor fit] | –
COc1cccc(-c2cc(C(=O)N3C(C)CCCC3C)no2)c1 (centres undefined) | inconclusive: 31.6 µM [activator, partial curve, poor fit] | –
O=C(NC1CCCC1)C(c1ccccc1F)N(C(=O)Cc1cccs1)c1ccc2c(c1)OCCO2 (centres undefined) | inconclusive: 31.6 µM [activator, partial curve] | –
CC(=O)Nc1ccc(/C=C(\C#N)C(=O)NC2CCCCC2C)cc1 (centres undefined) | inconclusive: 31.6 µM [activator, partial curve, poor fit] | –
COC(=O)N1CCCc2cc(S(=O)(=O)NCc3ccccc3)ccc21 | – | inactive: 4.34%
O=c1c2ccccc2nc2n1CCCCN2 | – | inactive: -1.4%

Structure (SMILES) | Potency | growth rescue (activation)
O=c1c(F)cn(C2CCCO2)c(=O)n1Cc1ccc(Cl)cc1 (centres undefined) | inconclusive: 50.1 µM [activator, single point] | –
CCN1C[C@@H]2[C@@H]3C(=O)N(Cc4ccccc4)C(=O)[C@@H]3[C@](C)(C1=O)N2C(=O)c1ccc(C(F)(F)F)cc1 | inconclusive: 25.1 µM [activator, partial curve, poor fit] | –
CC1=C(C(=O)OCC2CCCO2)C(c2cccc(C(F)(F)F)c2)C2=C(CC(c3ccco3)CC2=O)N1 (centres undefined) | inconclusive: 17.8 µM [activator, partial curve] | –
CCn1cc2nc(SCC(=O)Nc3cc(OC)cc(OC)c3)n(Cc3ccc(Cl)cc3)c(=O)c2n1 | active: 22.4 µM | –
CCC(=O)Nc1ccc(NC(=O)c2ccco2)cc1 | inconclusive: 31.6 µM [activator, partial curve, poor fit] | –
CC(=O)O/N=C(/C)c1ncc(C(F)(F)F)cc1N1CCOCC1 | – | inactive: 9.54%
Cc1cc(C)c2c(c1)NC(C(=O)O)C1CC=CC21 (centres undefined) | inconclusive: 35.5 µM [activator, single point] | –
CCCCCCCCCCCCCCCC[n+]1cccc(C(=O)N(CC)CC)c1 | active: 28.2 µM and inconclusive: 50.1 µM [activator, single point] | –
C(=C\c1ccccc1)/CSc1nnc(-c2ccccn2)n1Cc1ccco1 | inconclusive: 28.2 µM [activator, single point] | –
COc1ccccc1N1CCN(c2ccc3c(c2)S(=O)(=O)c2cccc(C(=O)NCC4CC4)c2C3=O)CC1 | inconclusive: 39.8 µM [activator, single point] | –
O=C1C=C(c2ccc3[nH]ccc3c2)C[C@@H](c2ccc(Cl)cc2)C1 | inconclusive: 31.6 µM [activator, single point] | –
O=C(CSc1nc2ccccc2n1S(=O)(=O)c1ccccc1)N1CCCCC1 | inconclusive: 2.24 µM [activator, partial curve, poor fit] | –
CCCOC(=O)c1cccc(NC(=O)C(C)(C)C)c1 | – | inactive: 14%
O=C(COC(=O)CCc1ccccc1)NNC(=O)c1ccccc1 | – | inactive: 20.7%
CCC(C(=O)Nc1ccc(C)c(C)c1)n1c(=O)c(C(F)(F)F)nc2ccccc21 (centres undefined) | – | inactive: -13.5%
O=C(Nc1nn(Cc2ccc(Cl)cc2)cc1Br)c1ccc(COc2ccccc2Cl)o1 | – | inactive: 41.4%
CC(OC(=O)c1oc2ccccc2c1COc1ccccc1)C(=O)NC(N)=O (centres undefined) | inconclusive: 56.2 µM [activator, single point] | –
Cc1ccc(C2(C)NC(=O)N(CC(=O)N3CCN(S(=O)(=O)c4cccc([N+](=O)[O-])c4)CC3)C2=O)cc1 (centres undefined) | inconclusive: 35.5 µM [activator, single point] | –
O=C(O)COc1ccccc1/C=N/Nc1ccc(S(=O)(=O)Nc2ccc(Cl)cc2)cc1[N+](=O)[O-] | inconclusive: 50.1 µM [activator, single point] | –
COc1ccc(-c2nc(CSCC(=O)N3CCN(c4cc(Cl)ccc4C)CC3)c(C)o2)cc1 | inconclusive: 28.2 µM [activator, single point] | –

Structure (SMILES) | Potency | growth rescue (activation)
CCN(CC)C(=O)CC(c1ccc2c(c1)OCO2)c1c(OC)cc(OC)c2c(-c3ccccc3)cc(=O)oc12 (centres undefined) | inconclusive: 22.4 µM [activator, partial curve] | –
Cc1cccc(NS(=O)(=O)c2ccc3c(c2)CC(C)N3C(=O)C2CCC2)c1C (centres undefined) | inconclusive: 50.1 µM [activator, single point] | –
CN(Cc1ccccc1)C(=O)COC(=O)c1cc(NS(=O)(=O)c2cccs2)ccc1O | inconclusive: 28.2 µM [activator, single point] | –
CC(=O)NC(C)(c1ccccc1)c1nc(-c2ccc(N(C)C)cc2)cs1 (centres undefined) | inconclusive: 31.6 µM [activator, single point] | –
CCOc1ccc(N2CC(c3nc4ccccc4n3CCOc3ccccc3OC)CC2=O)cc1 (centres undefined) | inconclusive: 35.5 µM [activator, single point] | –
CN(C)c1ccc(-c2ccnc3c2CC(C)(C(=O)NCc2ccc(F)c(F)c2)O3)cc1 (centres undefined) | inconclusive: 39.8 µM [activator, single point] | –
Cc1ccc(Cn2ccnc2SCC(=O)NCc2ccccc2Cl)cc1 | – | inactive: 16.3%
COc1ccc(NC(=O)CCc2c(C)nn(-c3ccc(N4CCCCC4)nn3)c2C)cc1Cl | inconclusive: 17.8 µM [activator, partial curve, poor fit] | –
Cc1ccc(C)c(NC(=O)C(Sc2nnc(-c3cccs3)o2)c2ccccc2)c1 (centres undefined) | inconclusive: 10 µM [activator, partial curve] | –
CCOC(=O)c1ccc(N2C(=O)c3n[nH]c(-c4ccco4)c3C2c2cccc(OC)c2)cc1 (centres undefined) | inconclusive: 28.2 µM [activator, single point] | –
COc1ccc(-c2c(-c3cc(OC)cc(OC)c3)n(C)c3ccc(-c4ccc5[nH]ccc5c4)cc23)cc1 | inconclusive: 8.91 µM [activator, full curve, poor fit] | –
CCCn1nnc(NC(=S)NC(=O)/C=C/c2ccco2)n1 | inconclusive: 50.1 µM [activator, partial curve, poor fit] | –
COc1ccc(NS(=O)(=O)c2ccc(NC(=O)C(C)(C(F)(F)F)C(F)(F)F)cc2)nn1 | inconclusive: 50.1 µM [activator, single point] | –
Cc1ccc(-c2nc(CS(=O)(=O)CC(=O)NC3CCC(C)CC3)c(C)o2)cc1 (centres undefined) | – | inactive: 34.6%
COc1ccc(Cl)cc1S(=O)(=O)NCc1ccc2c(c1)CCN2C(=O)c1cccc(C)c1 | inconclusive: 14.1 µM [activator, partial curve, poor fit] | –
NS(=O)(=O)c1cccc(NC(=O)C2CC(=O)N(Cc3ccco3)C2)c1 (centres undefined) | – | inactive: 5.8%
C=CC[C@@H](CC(=O)N[C@H](CO)Cc1ccccc1)C(=O)N[C@@H](COC(=O)[C@@H](CC=C)CC(=O)OC(C)(C)C)Cc1ccccc1 | inconclusive: 14.1 µM [activator, partial curve, poor fit] | –
CCC[C@H]1[C@@H](NC(=O)C#Cc2ccccc2)CC[C@@]23CCCN2C(=O)CCC[C@@H]13 | – | inactive: 20.6%
COc1ccc(CCNC(=O)c2ccc(Cn3c(=O)c4ccccc4n(Cc4cccc(F)c4)c3=O)cc2)cc1OC | inconclusive: 25.1 µM [activator, single point] | –
